Experimental data: the RNAGym collection of RNA variant scans (doi:10.7554/elife.90254)
Read counts are not given, so values of variants with three or more changes are uncertain.

B1: LINE1-mini (parent)
chain: GGCAGAGCUCAACACAGCGUGGCAAAGUGGCUGUGGCUAGACUGCC

Variants of: B1
Test: self-cleavage, relative activity (ratio to wild type); higher = more cleavage; in vitro, sequencing; the parent is a self-cleaving ribozyme

Variant	self-cleavage
GGCAGAGCUCAACAGAGCGUGACAAAGUGGCUGUUGCUAGACUGCC	0.11
GGCAGAGCCGAACACAGCGUGCCAAAGUGGCUAUGGCUAGACUGCC	0.02
GGCAGAGCUCAACACAGCGUGGCAAAGUGGAUAUGGCUAGACCGCC	0.03
GGCAGAGCUCAACACACCGUGGAAAAGUGGCUCUGGCUAAACUGCC	0.03
GACAGAGCUAAACACAGCGUGUCAAAGUGGCUGUGGCUAGACUGCC	0.03
GGCAGAGGUGAACACAGCGUGGCAAGGUGGCUGUGGCUAGACUGCC	0.02
GGCAGAGCUCAACACAGCGUGGCAAAGUGGCUGUGGCUAUACACCC	0.03
GGCAGACCUGAAGACAGCGUGGCAAAGUGGCUGUGGCUAGACUGCC	0
GGCAGAUAUCAACGCAGCGUGGCAAAGUGGCUGUGGCUAGACUGCC	0.1
GGCAGAGCUCAACGGAGAGUGUCAAACUGGCUGUGGCUAGACUGCC	0.01
GGCAGAGCUCAACACAGCGUGGCUAAGAAGCUGCGGCUAGACUGCC	0.02
GGCAGAGCUCAACUCAGCGUGGCAAAGUGGCUGUGGAUAGACAGCC	0.04
GGCAGGACUCAACACAGCGUGGCAGAUUGGCUGUGGCUAGACUGCC	0.01
GGCAGAGCUCAACACAUCGUGGCAAAGUGGUUGUGGCUAGAGUGCC	0.05
GGCAGAGCUCAACACAGCGUGGCAAAGAGGCUGUAGUUGGACUGCC	0
GGCAGAGCUCCACACAGCGUGGCAAACUGGCUGUGGCUAGACUUCC	0.03
GGAAGAGCUCAACACAGCGUGGCUAAGUGGCUGUGUCUAGACUGAC	0.17
UGCAGAGCUCAACACAGCGCGGCAAAGUGGCUGUGGCUAAACUGCC	0.03
GGUAGAUCUCAACACAGCAUGGCAAAGUGGCUGUGGCUAGACUGCC	1.09
GGCAGGGCUCAACACUGCGCGGCAAAGUGGCUGUGGCUAGACUGCC	0.03
GGCAGAGCUCAACACAGCGUGGCGAAGUGCCUGUGGCUAGACUUAA	0.05
GGCAGAGCUAAACACAGCGGUGCAAAGUGGCUGUGGCUAGACUGCG	0.06
GGCAGAGCUGAACACAGCGUGGCAAAGUGGCUGUGACUAGAUCGCC	0.01

Variant	self-cleavage
GGCAGAGCUAAACACAGCGUCGCAAUGUGGCUGUGGCUAGACUGCC	0.13
GGCAGUGCUCAACACAGAGCGGCACAGUGGCUGUGGUUAGACUGAC	0.02
GGCAGAGAUCAACACAGCGGGGCAAAGUGGCUGUGGCUAGUAUGCC	0.08
GCCAGAGCUCAACACAGCGUGGGAAAGUGGCUGAGGCUAGACUGCC	0.05
GGUACAGCUCAACACAGCUUGGCCGUGUGGCUGUGGCUAGACUGCC	0.02
GGCAGCGCUCAACACGGCGUGUCAAACUGGCUGUGGCUAGACUGAC	0.04
GGCAGAGCUCAACACAACGUGGCAAAGUUGCUUUGGUUAGACUGCC	0.08
GGCAGAGCUGGACACAGCGUGGCAAAGCGGCUGUCGCUAGACUGCC	0
GGCAGAGCUCAACCCAGCGUUGGAAAGUGGCUGUGGUUAGACUGCC	0.01
UGCAGUGCUCAACACUGCGUGGCAAAGUGCCUGUGGCUGGACUGCC	0.09
GGACGAGCUCACCACACCGUGGCAAAGUGGCUGUGGCUAGACUGUC	0.05
GGCAGAUCUCGACACAGCGUGGCAUAGUGGCUGUGGCUAGACUGCC	0.02
GGACGAGCUCAACACAGCGUGGCAAAGUGGCUGUGGCUAUACUGCC	0.21
CGCAGAGCUUAACACAUCGUGGCAAAGUGGCGGUAGCGAGACUGCC	0.01
GGCAGAACUCAACACAGCGUAGCAAAGUCGCUUUGGCUAGUCUGCC	0.11
GGCAGAGCGCAACACGGCGUGUCAAAGUGGCUGUGGCUAGACUGUG	0.07
GGCACAGCUCAACACAGCGUGUCAAAGUGGCUUUGGCUAGACUGCC	0.03
GGCAGAGCUCAACACAGCGUGGCAUAGUAGCUGGGGCUAAACUGCC	0.06
GGCAGACCUCAACACAUCGUGGCAAAGUGGCUCUGGCUAGACUGCC	0.25
GCCAGAGCUCAACACAGCGUGGCAAAGUGCCUGGGUCUAGACUGCC	0.03
GGCAGAGCUCAACACAGCGUGGCAAACUGGCUUCAGCUAGACUGCC	0.19
GGCAGACGUCAUCACAGCGUGGCAAAGUGGCUGUGGCUAGCCUGCC	0.36
GGCAGAACUCAACACGGGGUGGCGAAGUGGCUGUGGCUAGACUGGC	0.08

Variant	self-cleavage
GGCAGCGCUUAACACAGCGUGGCAAGGUGGCUGUGGCUAGACUGGC	0.02
UGCCGAGCUCAACACAGCGUGACAAAGUGGCGGUGGUUAGACUGCC	0.14
GGCAGGGCUCAACACAGCGUGGCAAAGGGGCUGUAGCUAGACUGCC	0.03
GGCAGACCACAACACAGCGAGGCAAAGUGGCUGUGGCUAGACUGCC	0.11
GGCAGAUCUCGACACAUGGUGGAAAAGUGGCUGUGGCUAGACUGCC	0.01
GGCAGAGCUCUACACAGCGUGGCCAAGUGGCUGUGUGUAGACUGCC	0
GGCAGAGCUCAACACAUCGUGGCAAAGUGACAGUGGCUAGACUGCC	0.14
GGCAGAGCUCAAAAUAGCGUGGUAAAGUGGCUGUGGCUCGACUGCC	0.12
GGCAGAGCUCAACACAGCGUUGCAAAGAGGCUGUGGGUAGACUGCC	0.02
GGAAGAACUCAGCACAGCGUGGGAAAGUGGCUGUGGCUAGACUGCC	0.24
GGCAGCGCUCUACACAGCGUGUCAAAGUGGCUGUCGCUAGACUGCC	0.01
GGCAGAGUUCAACGUAGCGUGGCAAAGUGGCUGUGGCUAGAAUGCC	0.14
UGCCGAGCCCAACACAGCGUAGCAAAGUGGCUGAGGCUAUACUGCC	0.01
GGCAGAGCUCAACACAGCGUGGCAUAGUGGCUGUGUGUAGACUGUC	0.04
GGCAGAGCUCAGCACAGCGUGGCAAAGUGACUGUCGCUAGAGUGCC	0.02
GGCAGCGCUCAACACAGCGUGGGAAAGUGGCUGUGGCUGGACUGCC	0.03
GGCAGAGCUAAACACAGCAUGGCAAAGUAGCUGUGGCCAGACUGCC	0.77
GGCGGAGCUCAACACAGCGUCGCAGAGUAGCUGUGGCUAGACUGCC	0.68
GGCAGAGCUCAACACAGCGUGGCAAAGUGGCGGUUGCUAGACUUCC	0.02
GGCAGAGCUCAACACAGCUAGGCAAAGGGGCUGUGGCUAGACUUAC	0.25
UGCAUAGCUCAACACAGCGUGGCAAAGUGGCUGUGGCUAGACAGCC	0.02
GGCAGAGGGUAACACAGCGUGGCAAAGUGGCUGUGGCUAGACUGCC	0.02
GGCAGAACUCAACGCGGCGUGGCAGAGUGGCUGUGGCUAGACUGCC	0.03

Variant	self-cleavage
GGCAGAGCUCAACAUAGCGUUGCAAAGUGGCUGUGGCUAGACUCCC	0.11
GGAAGAGCUCAACACAGGGUGGCAAAGUGUCUGUGGCUAGACUGCC	0.49
GGCAGAGCUCGAAACAGCGUGGCAAAGUGGCCGUGGCUAGACUGCC	0
GACAGAGCUCAACACAGCGUGGCAAAGUAGCUGUGGCUUGACUGCC	2.06
UGCAGUGCUCAACACAGCGUGGCAAAGUGGCUGAGGCUAGACUGCC	0.01
GGCAGAGCUCAACACCGCGUGCCGAAGUCGCUGUGGCAAGAAUGCC	0.02
GGCAGAGCUUAACAGAGCGUGGCAAAGUGGCUGUGGCUAGACUGGC	0.05
GGCAGAACUCAAUACAGCGUGGAAAACUGGCUGUGGCUAGACAGCU	0.55
GGCAGAGCUCAAUGCAGCGUGGCAAAGUGCCUGUGAUUAGACUGCC	0.03
GGCAGAGCUAAACACAGCGUGGCAAAUUAGCUGUGGCUAGACUGCC	0.06
GACAGAGCUCACCACAGCGUGGCAAAGUGGGUGUGGCUAAACUGCC	0.02
GGCAGAGCUCAAAAUAGCGUGGCAAAAUGGCUCUGGCUAGACUGCC	0.07
GACGGAGCACAAAACAGCGUGGCAACGUGGCUGUGGAUAGACUGCC	1.4
GGCACAGCUCAACACAGCAUGGCAAAGUGGCUGUGUCUAGACUGCC	0.03
GGCAGAGCUCAACACGGCGUGGCCAAGUGGUUGUGGCUAGACUGCC	0.09
GGCAUAGCUCAAUACAGCGUGGAAAAGUGGCUGGGGCUAGACUGCC	0.08
GGCAGAGCUCAACACAGCGCGGCAAACUGGCUGUGACUAGACUGCC	0.08
GGGAGAGCUCAACACAGCAUGGCAAAGUGGCUGUGACUAGACUGCC	0.21
GGCAGAGCUCAACACACCGUGGCAACGUAGCUGUGGCUAGACUACC	0.23
GCCAGAGCUCAACACAGCGUGGCAAAGUGGCUCUUGCUACACUGCC	0.02
GGUAGAGCUCAACACAGCGUGGCAAAGUCGCUGUGUCUAGACUGCC	0.1
GGCAGAGCUAAACACAGCGCGGCAAAGUGGCUGUGGAUAGACUGCC	0
GGCAGAGGUCAACACAGUGCGUUAAAGUGGAUGCGGCUAGACUGCC	0.01

Variant	self-cleavage
GACGGAGCUCAACACAGCAUGGCAAAGUGGCUGUUGCUAGACUGCC	0.92
GGCAGAGCUCAACACUGCGUGGUAAAGUAGCUGUGGCUAGACUGCC	0.11
CGCAGAGCCCAACACACCGUGGCAAAGUGGCUGUGGCGAGACUGCA	0.03
GGUAGAGCUUAACACAGCGUGGCAAAUUGGCUGUGGCUAGACUGCC	0.12
GGCAGACCUCAACACAGUGUGGCAAAGUGGCUGUGGCUAGACCGGC	0.09
GGCAGAGCUGAACACAGCGUGGCGAAGUGGCUUUGACUAGACUGCC	0.01
GGCAGACCCACCCACAGCGUGGUAAACCGGCUCUGGCUAGACUGCC	0.01
GGCAGAGCUCAACACAGCGAGGCAAAGUGGCUGUGGCUAUACCGCC	0.08
GGCAGAGUUCAACACAGCGUGGCAAAAUGGCUGUGGCUAGACUGCA	0.32
GGAAGAGCUCAACACAGCGUGGCAAAGUGGAUGUGGCUAGAUUGCC	0.16
GGCAGAGCUCAACACAGCAUGGCAAAAUUGCUGUGGCUAGACUGCC	1.2
GGGAGAGCUAAACAAAGCGUGGCAAAGUGGCAGUGGCUCGACUGCC	0.03
GGCAGAGCUCUACACAGCGUGGCAAAGUGGCUGUUGCUAGAAUGCC	0.02
GGCAGAGCUCAAUACAGCGUGGCAAACUGGCUGUGGCUAGCCUGCC	0.01
GGCAGAGCUCAACACAGCGUUGGAAAGGGGCUGUGGCUAGACUGCC	0.52
GUCAGAGCUCAAUCCAGCGUGGCAAAGUGGCUGUGGAUAGACUGCC	0.1
GGCAGAGCUCAUCACUGGGUGGCAAAGUGGCUGUGCCUAGACUGCC	0.01
CGCAGAGCCCAACACAGCGUGGCAAGGUGGCUGUUGCUAGACUGAC	0.01
GGCAGAGCUUACCACAGUGUGGGAAAGUGGCUGUGACUAGACUGCC	0.02
GGCAGAACUCAACACAGCGUGGCAGAGUGGCUCUGGCUAGACUGCC	0.04
